Read-outs that look alike come from different tables or passages of the source.
Tests used:
[1] = target: R11 (WP_162024566-LBD); experiment: Microcalorimetric titration (ITC) of the R11 LBD with ligands; assay type: binding, Lentimonas sp. CC4; settings: 25 °C, pH 7.0, 1 mM β-mercaptoethanol, read-out: Dissociation constant, R11
[2] = target: McpH-LBD Y121A (Pseudomonas putida, UniProt Q88R14, Y121A); experiment: biochemical; assay type: binding; settings: ITC, 25 °C, pH 6.0, ligand adenine (2 mM)
[3] = target: McpH-LBD R129A (Pseudomonas putida, UniProt Q88R14, R129A); experiment: biochemical; assay type: binding; settings: ITC, 25 °C, pH 6.0, ligand adenine (2 mM)
[4] = target: McpH-LBD D169N (Pseudomonas putida, UniProt Q88R14, D169N); experiment: biochemical; assay type: binding; settings: ITC, 25 °C, pH 6.0, ligand adenine (2 mM)
[5] = target: McpH-LBD (Pseudomonas putida, UniProt Q88R14); experiment: biochemical; assay type: binding
[6] = target: McpH-LBD W140A (Pseudomonas putida, UniProt Q88R14, W140A); experiment: biochemical; assay type: binding; settings: ITC, 25 °C, pH 6.0, ligand adenine (2 mM)
[7] = target: R1 (WP_219614703-LBD) (Aeromonas salmonicida, UniProt T0PLV6); experiment: Microcalorimetric titration (ITC) of the R1 LBD with ligands; assay type: binding
[8] = target: McpH-LBD F167A (Pseudomonas putida, UniProt Q88R14, F167A); experiment: biochemical; assay type: binding; settings: ITC, 25 °C, pH 6.0, ligand adenine (2 mM)
[9] = tested on: R10 (WP_110129388-LBD); assay type: binding, Coraliomargarita sinensis; settings: change in Tm, threshold 2 °C; for Binding in thermal shift assay, R10: 2 mM ligand (Supplementary Fig. 7)
[10] = tested on: dCache_1PU domains (11 proteins analyzed); experiment: Summary of binding data (thermal shift assays and ITC) for the 11 dCache_1PU proteins; settings: of the 11 proteins analyzed
[11] = tested on: aptamer; design: method as in PMID 7510417; settings: cited from earlier work
[12] = tested on: R11 (WP_162024566-LBD); experiment: Thermal shift assay of the R11 LBD; assay type: binding, Lentimonas sp. CC4; settings: change in Tm, threshold 2 °C
[13] = target: R6 (WP_185834821-LBD) (Vibrio cholerae, UniProt Q9KPY8); experiment: biochemical; assay type: binding; settings: ITC, One binding site model; * = hyperbolic curve
[14] = tested on: R6 diguanylate cyclase (VC2224) expressed in P. putida KT2440 pCdrA::gfpC; assay type: cell-based; settings: minimal medium agar plates, 24 h, 30 °C; wild-type R6
[15] = target: R15 (WP_207952809-LBD) (Paenibacillus agricola, UniProt A0ABX0IZG8); experiment: Microcalorimetric titration (ITC) of the R15 LBD with ligands; assay type: binding, Paenibacillus sp. S3N08; settings: One binding site model, * = hyperbolic curve
[16] = target: R14 (WP_021170906-LBD) (Sporomusa ovata, UniProt A0A0U1L1T7); experiment: Microcalorimetric titration (ITC) of the R14 LBD with ligands; assay type: binding; settings: One binding site model, * = hyperbolic curve
[17] = target: R8 (WP_227113344-LBD) (Eggerthella sinensis, UniProt A0ABX9HL97); experiment: Microcalorimetric titration (ITC) of the R8 LBD with ligands; settings: One binding site model, * = hyperbolic curve

Sequence of McpH-LBD R129A (Q88R14 51-276 R129A): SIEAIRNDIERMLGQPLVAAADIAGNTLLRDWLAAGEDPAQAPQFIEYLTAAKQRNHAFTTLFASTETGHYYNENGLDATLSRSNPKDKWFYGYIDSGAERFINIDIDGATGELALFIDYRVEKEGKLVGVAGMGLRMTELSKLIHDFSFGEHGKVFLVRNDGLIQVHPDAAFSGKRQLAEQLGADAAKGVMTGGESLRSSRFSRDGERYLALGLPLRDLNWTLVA
Sequence of McpH-LBD Y121A (Q88R14 51-276 Y121A): as the sequence (Q88R14 51-276 R129A) above, with Y71A, A79R counted along it
Sequence of R15 (WP_207952809-LBD) (A0ABX0IZG8 entry or part of it): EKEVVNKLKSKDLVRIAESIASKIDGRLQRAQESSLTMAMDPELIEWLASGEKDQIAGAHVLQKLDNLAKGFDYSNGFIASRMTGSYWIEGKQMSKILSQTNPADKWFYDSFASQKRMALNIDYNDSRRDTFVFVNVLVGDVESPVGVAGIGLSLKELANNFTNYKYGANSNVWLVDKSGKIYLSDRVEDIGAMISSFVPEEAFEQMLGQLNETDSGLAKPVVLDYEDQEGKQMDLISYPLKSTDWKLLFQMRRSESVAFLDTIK
Sequence of McpH-LBD F167A (Q88R14 51-276 F167A): as the sequence (Q88R14 51-276 R129A) above, with A79R, F117A counted along it
Sequence of McpH-LBD W140A (Q88R14 51-276 W140A): as the sequence (Q88R14 51-276 R129A) above, with A79R, W90A counted along it
Sequence of McpH-LBD D169N (Q88R14 51-276 D169N): as the sequence (Q88R14 51-276 R129A) above, with A79R, D119N counted along it
Sequence of R14 (WP_021170906-LBD) (A0A0U1L1T7 entry or part of it): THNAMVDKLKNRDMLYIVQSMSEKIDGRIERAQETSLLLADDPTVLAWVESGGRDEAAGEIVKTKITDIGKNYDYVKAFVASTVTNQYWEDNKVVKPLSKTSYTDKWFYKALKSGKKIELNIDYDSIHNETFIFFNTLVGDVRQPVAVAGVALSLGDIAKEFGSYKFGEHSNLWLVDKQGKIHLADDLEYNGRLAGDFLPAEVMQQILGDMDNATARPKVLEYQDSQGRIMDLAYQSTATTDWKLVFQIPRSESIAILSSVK
Sequence of McpH-LBD (Q88R14 51-276): as the sequence (Q88R14 51-276 R129A) above, with A79R counted along it

## Nc1ncnc2[nH]cnc12 [Adenine]
[1]
  Kd: 72 ± 13 µM
[2]
  Kd: 151 ± 7 µM
[3]
  Kd: 42 ± 2 µM
[4]
  Kd: 209 ± 45 µM
[5]
  Kd: 2.6 ± 0.4 µM
[6]
  Kd: 169 ± 66 µM
[7]
  N value, R1: 0.18
[8]
  Kd: 121 ± 30 µM
[9]; cells left empty in Table 3
  Binding in thermal shift assay, R10 (Supplementary Table 3): Nts (No binding observed in thermal shift assays, i.e. compounds caused changes in the midpoint of protein unfolding (Tm) of less than 2 ºC)

## Cn1c(=O)c2c(ncn2C)n(C)c1=O [Caffeine, reference compound]
[10]
  Proteins that bound / recognized the ligand: none of the proteins
[11]
  Reduction of affinity as compared to theophylline: 10,000 times

## Nc1nc2nc[nH]c2c(=O)[nH]1 [Guanine]
[12]
  Binding in thermal shift assay, R11: Nts^b (no binding observed in thermal shift assays, i.e., compounds caused changes in the midpoint of protein unfolding (Tm) of less than 2 °C)
[9]
  Binding in thermal shift assay, R10: Nts^b (no binding observed in thermal shift assays, i.e., compounds caused changes in the midpoint of protein unfolding (Tm) of less than 2 °C)

## O=c1[nH]cnc2c1ncn2[C@@H]1O[C@H](CO)[C@@H](O)[C@H]1O [Inosine]
[13]
  N value, R6: 0.45
[14]
  Concentration at which colonies became wrinkly (onset of the response): ≥ 50 µM
[7]; ITC, One binding site model, * = hyperbolic curve
  N value, R1: 0.12
[15]
  N value, R15: 0.22
[16]
  N value, R14: 0.09
[9]
  Binding in thermal shift assay, R10: Tsa^c (binding observed in thermal shift assays, i.e., compounds caused changes in Tm of more than 2 °C)
[17]
  N value, R8: 0.12
